# This is one part of the list. The full chains were built here from the parent and the listed change. Inactive controls read about 0.05.
# B1: TEV protease; numbered along this chain (parent)
# chain: MGESLFKGPRDYNPISSSICHLTNESDGHTTSLYGIGFGPFIITNKHLFRRNNGTLVVQSLHGVFKVKDTTTLQQHLVDGRDMIIIRMPKDFPPFPQKLKFREPQREERICLVTTNFQTKSMSSMVSDTSCTFPSGDGIFWKHWIQTKDGQCGSPLVSTRDGFIVGIHSASNFTNTNNYFTSVPKNFMELLTNQEAQQWVSGWRLNADSVLWGGHKVFMVKPEEPFQPVKEATQL
# Variants of: B1
# Test: raw area under fraction-flipped curve 0-4 h after induction (AUC4h, not background-subtracted), DNA-recorder readout of cleavage of the substrate (dimensionless); higher = more cleavage of the substrate by the protease variant
# Details: temperature: 34 °C; time window: 0-4 h after rhamnose induction
# Procedure: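 In vivo DNA recorder in E. coli TOP10(DE3) ΔrhaA at 34 °C. Each TEVp single-site mutant (parent TEVp 0) is paired with a single-site variant of the 7-mer TEVs (canonical ENLYFQ|S). The substrate sits between flexible linkers in a Bxb1-sfGFP-TEVs-SsrA fusion, so cleavage stabilises Bxb1 and speeds flipping of a recombination array, read by NGS. The value is the raw area under the fraction-flipped curve over 0-4 h after rhamnose induction (AUC4h), with ≥20 reads per time point. It is not background-subtracted; inactive controls average about 0.047.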
# 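Note: Bxb1 expression induced with 0.2% (w/v) L-rhamnose at OD600 near 0.5, cultures sampled hourly, flipped fraction per protease–substrate barcode pair counted by paired-end Illumina sequencing.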
Variant,area with substrate ENCYFQS,area with substrate ENDYFQS,area with substrate ENEYFQS,area with substrate ENFYFQS,area with substrate ENHYFQS,area with substrate ENNYFQS,area with substrate ENQYFQS,area with substrate ENRYFQS,area with substrate ENVYFQS,area with substrate ENYYFQS,area with substrate ENGYFQS,area with substrate ENKYFQS,area with substrate ENPYFQS,area with substrate ENSYFQS,area with substrate ENTYFQS,area with substrate ENWYFQS,area with substrate ENIYFQS,area with substrate ENMYFQS
R51I,0.0702,0.0586,0.0622,0.0601,0.0552,0.0677,0.0558,0.0572,0.0309,0.0616,,,,,,,,
V58P,0.0425,,0.0361,,,0.0394,,0.0179,0.026,,0.0356,,,,,,,
S60T,0.0682,0.0641,0.0651,0.0546,0.0621,0.0578,0.0629,0.0635,0.08,0.0629,,0.0589,0.0777,0.059,0.0597,0.0387,,
V64Y,0.0423,0.0565,0.0719,0.0806,,,0.0537,,0.0837,,0.0522,0.0556,0.0588,0.0628,0.0349,,0.0963,
L77K,0.0624,,0.0549,,,,0.0661,,0.0597,0.0858,0.0684,,,0.0492,0.0492,0.0591,,0.0515
L77P,0.0559,0.0823,0.0592,0.0582,,,0.0655,0.0648,,,,0.0638,0.0737,,0.0131,,0.0989,0.0543
D79N,0.0658,0.0578,0.0441,,,0.049,,0.0555,,,0.0582,,,0.0606,0.0802,,,
I86N,0.0486,0.0461,,0.0504,,,0.0431,,0.0321,,,,,0.0483,0.045,,,
M88P,0.033,0.0558,,,,,,,,,0.0337,,0.0516,0.0602,0.0486,,,0.0526
F95M,0.0949,,,,,,0.0839,,,,,0.061,,,,,,
P96R,0.0749,,,,0.0643,0.0555,0.0665,,,,,0.0663,,0.0544,0.0814,,0.138,
F101N,0.0388,0.0499,0.0486,0.0441,0.0399,,0.047,0.0493,0.0552,0.0243,,0.0411,0.0365,0.0193,0.0362,,,0.0578
F101W,0.0545,0.0501,0.0706,0.0617,,0.0525,0.0579,,0.0823,0.0666,,0.0657,,0.0459,0.0677,0.0035,,0.0892
R102I,0.0535,0.0465,0.051,,0.0582,,0.0494,0.0513,0.0489,,0.0502,,0.0495,0.0726,0.0498,,0.0463,0.0597
R102Y,0.102,0.0427,,,0.0143,,0.0312,,,,0.0636,0.0443,,0.0452,,,,
P104H,0.0589,0.0531,,0.0563,0.0416,,0.0407,,0.0311,,0.0668,,0.0379,0.0617,0.0513,,,0.0614

Variant,area with substrate ENCYFQS,area with substrate ENDYFQS,area with substrate ENEYFQS,area with substrate ENFYFQS,area with substrate ENHYFQS,area with substrate ENNYFQS,area with substrate ENQYFQS,area with substrate ENRYFQS,area with substrate ENVYFQS,area with substrate ENYYFQS,area with substrate ENGYFQS,area with substrate ENKYFQS,area with substrate ENPYFQS,area with substrate ENSYFQS,area with substrate ENTYFQS,area with substrate ENWYFQS,area with substrate ENIYFQS,area with substrate ENMYFQS
P104R,0.0662,0.0659,0.0641,0.059,0.0676,0.0655,0.0557,,,,0.0564,,0.0607,0.048,,,0.111,
R106Q,0.0658,0.0674,0.0568,0.0698,0.0558,0.0536,0.0591,0.0522,0.0787,0.0583,0.0565,,0.0515,0.0638,0.0433,0.0548,0.0965,0.0566
L112V,0.0655,0.0606,0.0623,0.065,0.0646,,0.0619,0.0605,,0.0662,0.0811,,,0.0672,,,,
N116C,0.0583,0.0487,,0.058,0.0582,0.0399,0.0613,0.0719,0.0759,0.0504,0.0564,,,0.0462,0.0621,,,
F117L,0.0712,0.0588,0.0609,0.086,,,0.0697,,0.0726,,,,,0.0944,0.0605,0.0605,0.106,
F117V,0.0758,0.0519,0.0544,0.0563,0.06,,0.0526,,0.0665,,0.0632,0.0565,0.0414,0.0587,0.0698,,0.0694,
K120E,0.0621,0.0611,0.0625,0.0642,,0.0516,0.0616,0.0464,0.0632,0.0545,0.0608,,,0.0544,0.0398,,,
K120N,0.0655,0.0086,,,0.0476,0.059,,,,0.0827,,,0.0533,0.0666,,0.004,,
S130R,0.0628,0.0577,,0.0707,0.0559,,0.0537,,0.0825,,,,,0.0523,0.0506,,,0.0704
F133G,0.0679,0.0898,,0.0718,,0.0624,0.0631,,0.0945,0.0718,,0.0533,0.0616,,0.0593,,0.0545,0.0592
G136V,0.0779,0.0664,0.0598,,0.0569,0.0674,0.0589,0.0526,0.0753,,,,,0.0699,,,,0.0619
W141H,0.0739,0.0559,0.0587,0.0521,0.0575,,0.0566,0.051,0.0506,0.0636,0.0481,,,,0.051,0.0387,0.0866,
W144A,0.0869,0.0599,0.0678,,0.0613,0.0677,0.0723,0.048,,0.0905,0.0635,0.0728,0.0335,0.0592,,,0.0903,
W144F,0.0746,,0.0434,0.0621,0.0591,0.0686,,,,0.0611,0.0698,0.0612,0.053,0.0709,0.0606,,0.119,
W144G,0.0613,0.0631,,0.0637,0.0776,0.0564,0.0672,0.0519,0.0839,,0.077,0.0677,0.0695,0.0556,0.0722,0.0635,0.0781,
